This note sets out measurements from PubChem BioAssay (NCI).

Molecules are shown by their SMILES. “And” between values parts separate entries of the source, which are not always exact repeats. Identical values can stand only once.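 Following 48 hours of exposure in 96-well plates, responses at five concentrations were used to interpolate endpoints linearly. At the GI50, growth is halved. TGI denotes the concentration required for complete inhibition of growth.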

For this experiment, the system named is NCI-H322M lung. Nature of the experiment: NCI tumour cell line growth inhibition, 48 h.
Turning to `O=Nc1ccc(NO)c2ccccc12`, the GI50 is 18.2 µM and the TGI was 35.5 µM.
On the same counts, the results for `CNC(=O)c1ccccc1Nc1nc(Nc2cc(OC)c(OC)c(OC)c2)ncc1Br` are 0.0317 µM and 1.8 µM.
As to `CN(C)CCNC(=O)c1cccc(N(C)C(=O)c2ccccc2)c1[N+](=O)[O-]`, the TGI was > 100 µM.
The same measure, in the same setting: the value for `CC1=C(c2ccccc2)NC(=S)C(C)C(c2ccccc2)=N1` (stereo not given) was > 100 µM; that for `COC(O)C(=O)c1ccc2c(c1)CC1(C2)Cc2cc3c(cc2C1=O)CCC3` (stereo not given) was 34.6 µM.
For the compound `CC(=O)C1=C(O)C=C2Oc3c(C(=O)/C=C/c4c(Cl)cccc4Cl)c(O)c(C)c(O)c3[C@]2(C)C1=O`, the GI50 is 0.938 µM and the TGI is 5.4 µM.
On the same counts, the results for `O=c1cc(-c2cccc3c2Sc2ccccc2S3)oc(N2CCOCC2)c1` are 13.7 µM and 29.5 µM.
Consider `CN(/N=C/c1cccc2cccnc12)c1ccc(Cl)cc1[N+](=O)[O-]`, for which the TGI is > 100 µM.
For `CCOC(=O)C1c2[nH]c3ccccc3c2CCN1C(=O)c1ccc(OC)o1` (stereo not given), the TGI was > 10 µM.
Take `COc1cc(C2c3cc4c(cc3OC(NNS(=O)(=O)c3ccc(C)cc3)C2C)OCO4)cc(OC)c1O` (stereo not given): the TGI was > 100 µM.
Regarding `Oc1ccc(-c2nc3ccccc3s2)cc1CN(Cc1ccccn1)Cc1ccccn1`, the GI50 was 0.561 µM and the TGI was determined as 31.3 µM.
Turning to `C#CCSc1cc(Cl)c(C)cc1S(=O)(=O)Nc1nc2ccccc2o1`, the GI50 was 28.3 µM and the TGI stood at 79.3 µM.
Consider `CCOc1ccc(N/C(=C(/C(Cl)=C(/Cl)N2CCCCC2)[N+](=O)[O-])n2nnc3ccccc32)cc1`, for which the TGI was determined as 33.2 µM.
For `COc1c2ccoc2c(OC)c2oc(=O)ccc12`, the TGI is > 100 µM.
Same read-out and setting: the value for `CSc1nc(NC2OC(COC(C)=O)C(OC(C)=O)C(OC(C)=O)C2OC(C)=O)c2c(n1)OCC2=O` (stereo not given) was > 100 µM.
With `CO/N=C(\C)c1ccc(Nc2cc(-c3ccccc3)nc3ccc(OC)cc23)cc1`, the GI50 was 1.83 µM and the TGI turned out to be 5.41 µM.
As to `CCN(CC)c1ccc(C(O)C2=CC(=O)c3ccccc3C2=O)cc1` (stereo not given), the GI50 was 2.63 µM and the TGI was determined as 8.06 µM.
Regarding `CC(C)C(=O)Nc1cc(C(F)(F)F)ccc1[N+](=O)[O-]`, the TGI is > 100 µM.
Same read-out and setting: for `COc1cc(-c2cc(=O)c3c(O)c(CC=C(C)C)c(O)cc3o2)ccc1O` the value was > 50 µM.
Regarding `Cc1nc2ccccc2c(/C=C/c2ccc(Cl)cc2)c1C(=O)/C=C/c1ccc(C(F)(F)F)cc1`, the GI50 is 1.38 µM and the TGI was determined as 2.69 µM.
As for `COc1ccc(N2C(=O)C3c4[nH]c5ccc(Br)cc5c4C4CCC(C(C)(C)C)CC4C3C2=O)cc1` (stereo not given), the TGI was > 100 µM.
Same read-out and setting: for `CCOC(=O)N1CCC(=O)C(CNC23CC4CC(CC(C4)C2)C3)C1` (stereo not given) the value was > 100 µM.
Consider `COc1cc(NCCCN=C(N)NC(N)=NC(C)C)c2ncccc2c1`, for which the GI50 is 2.87 µM and the TGI stood at 58.5 µM.
The compound `Cn1cnc([N+](=O)[O-])c1Sc1nccn1-c1cccc2ccccc12` gave a TGI of 68.9 µM.
Turning to `NCCCCCCCn1c2c(c3ccccc3c1=O)C(=O)c1ccccc1-2`, the GI50 was 1.98 µM and the TGI was determined as 3.86 µM.
Consider `O=C(CN1CCOCC1)c1ccc2c(c1)oc(=O)n2CCN1CCOCC1`, for which the TGI is > 100 µM.
Still for that read-out and setting: the value for `C/C=C(\C)C(O)C(C)C(O)C/C=C(C)/C=C(\C)C/C(C)=C/C/C=C(\C)C(O)C(C)c1ccc(CCC)c(=O)o1` (stereo not given) was 46.9 µM; that for `C/C(CC(=O)Nc1ccc(C)c(C)c1)=N\NC(N)=O` was > 100 µM; that for `COc1ccccc1-c1cc(=O)c2cc3c(cc2[nH]1)OCO3` was > 100 µM.
As to `CC(C)([NH-])CO.CC(C)([NH-])CO.[Cl][Cd][Cl]`, the GI50 is > 100 µM and the TGI was > 100 µM.
With `COC(=O)C(Cc1c[nH]c2ccccc12)NC(=O)c1ccc(-c2ccc(Cl)cc2Cl)o1` (stereo not given), the TGI was > 100 µM.
Take `Nc1nnnn1CCO`: the TGI was > 100 µM.
Same read-out and setting: for `[N-]=[N+]=NC(c1cn(C2CC(O)C(CO)O2)c(=O)[nH]c1=O)C(Cl)I` (stereo not given) the value was > 100 µM.
`C=C1CCC2C3(C)COC(c4ccccc4)OC3CCC2(C)C1/C=C/C1=CCOC1=O` (stereo not given): the GI50 was 11.8 µM and the TGI came to 40 µM.
Take `COc1ccc(C2SCC(=O)N2NC(=O)c2ccc(NC(C)=O)cc2)c(OC)c1` (stereo not given): the TGI is > 100 µM.
The same measure, in the same setting: the value for `CC1SCc2nc3ccccc3n21` (stereo not given) was > 100 µM.
For `CN(Cc1ccccc1)c1ccc(CO)c(Cl)c1`, the GI50 was 9.25 µM and the TGI stood at 66.5 µM.
With `COC(=O)C(C(=O)C(=O)Nc1ccc([N+](=O)[O-])cc1[N+](=O)[O-])c1nc2ccc(Cl)cc2[nH]c1=O` (stereo not given), the TGI was > 100 µM.
Still for that read-out and setting: the value for `CN1C(=O)C2C3C=C4c5ccccc5N(c5ccccc5)C4(C2C1=O)[C@H]1C(=O)N(C)C(=O)[C@@H]31` (stereo not given in full) was > 100 µM.
The same measure, in the same setting: for `CC(Nc1ccc(S(=O)(=O)N=C(N)N)cc1)c1c2ccccc2nc2ccccc12` (stereo not given) the value was > 100 µM.
On the same count and under the same terms, for `O=c1c(Br)cc2nc3ccccc3sc-2c1Br` the value was > 100 µM.
For the compound `O=C(COc1cc(O)c2c(=O)cc(-c3ccccc3)oc2c1)Nc1ccccc1C(F)(F)F`, the GI50 is > 100 µM and the TGI was > 100 µM.
Consider `Cn1c2c(c3ccc([N+](=O)[O-])cc3c1=O)C(=O)c1ccccc1-2`, for which the GI50 was > 100 µM and the TGI was > 100 µM.
With `O=C(O)C1(C(=O)O)CCC1.[NH2-].[NH2-].[Pt+2]`, the GI50 is 204 µM and > 250 µM; the TGI is > 250 µM.
With `CCC[CH2][Sn]1([CH2]CCC)[O]CC(CN(C)Cc2ccccc2)[O]1` (stereo not given), the GI50 was 16.6 µM and the TGI is 30.5 µM.
On the same counts, the results for `Cc1csc(/C=C/C(=O)c2nnn(-c3ccnc4c(C(F)(F)F)cccc34)c2C)c1` are 62 µM and > 100 µM.
With `O=c1ccn(COC(COCc2ccccc2)COCc2ccccc2)c(=O)[nH]1`, the TGI was > 100 µM.
Still for that read-out and setting: the value for `O=c1[nH]c(=S)[nH]c2c1CN(CCCN1CCOCC1)CN2` was > 100 µM; that for `COc1ccc(/C(Cl)=C(\C=N/O)c2ccc(OC)c(OC)c2)cc1OC` was > 100 µM.
For the compound `C/C1=C/C(=O)O[C@@H]2C[C@@H](CC[C@H](C)/C=C\C=C\CC1)O[C@@](O)([C@@H]1CSC(=O)N1)C2`, the TGI was > 10 µM.
On to `O=c1[nH]nc(Cc2c[nH]c3ccccc23)o1`, for which the TGI was > 100 µM.
The same measure, in the same setting: the value for `CC1=C(O)C(=O)C2C(=O)C1C1Cc3ccccc3C21` (stereo not given) was > 100 µM.
Consider `CC(=O)Nc1c(C)cc2c(nc3n2CCC3OC(C)=O)c1[N+](=O)[O-]` (stereo not given), for which the TGI was > 100 µM.
Still for that read-out and setting: for `O=C(Nc1ccc2[nH]c(C(=O)N3CC(CCl)c4c3cc([N+](=O)[O-])c3ccccc43)cc2c1)Nc1ccc2[nH]c(C(=O)N3CC(CCl)c4c3cc([N+](=O)[O-])c3ccccc43)cc2c1` (stereo not given) the value was > 100 µM; for `CC(C)N=C(N)NC#N`, > 100 µM.
On to `COC(=O)c1cc(C(=CCC[C@H]2CC[C@@]3(C)C(CCC4C3CC[C@@]3(C)C4CC[C@@H]3C(C)CCCC(C)C)C2)c2cc(Cl)c(O)c(C(=O)OC)c2)cc(Cl)c1O` (stereo not given in full), for which the TGI is > 10 µM.
Still for that read-out and setting: the value for `CN1C(=O)C2(C=CC(O)CC2)c2ccccc21` (stereo not given) was > 100 µM.
Turning to `Fc1ccc2c(c1)c(-c1nc(-c3c[nH]c4ncccc34)cs1)cn2CCCCN1CCCCC1`, the GI50 is 1.61 µM and the TGI was found to be 2.99 µM.
On the same counts, the results for `N=c1ccn(O)cc1/C=C1/C(=O)Nc2ccccc21` are > 100 µM and > 100 µM.
On the same counts, the results for `O=C(Nc1ccc(-n2ccc3c(NC(=O)c4ccccc4)ncnc32)cc1)Nc1ccc(Cl)c(Cl)c1` are 2.45 µM and 8.46 µM.
On to `[N-]=[N+]=NCCCCCC(=O)OC(C(=O)c1ccccc1)c1cccc(OCC(=O)NCCOCCOCCNC(=O)CCCC[C@@H]2SC[C@@H]3NC(=O)N[C@@H]32)c1` (stereo not given in full), for which the GI50 is > 100 µM and the TGI is > 100 µM.
Take `Clc1ccc(-c2c3c(nn2-c2ccccn2)CCc2ccccc2-3)cc1Cl`: the GI50 is > 100 µM and the TGI is > 100 µM.
Compound `Cc1ccc(NC(=O)CC2Sc3ccccc3NC2=O)c(C)c1` (stereo not given) returned a TGI of 67.1 µM.
Still for that read-out and setting: for `CC12CCC3(OCCO3)C(OC(=O)c3ccccc3)=C1CCC21OCCO1` (stereo not given) the value was > 100 µM; for `NC(Cc1ccc(N(CCCl)CCCl)cc1)C(=O)NC(CCC(=O)O)C(=O)O` (stereo not given), > 100 µM.
In the case of `CC(C)[C@H](NC(=O)[C@H](N)Cc1ccc(N(CCCl)CCCl)cc1)C(=O)O`, the TGI was > 100 µM.
Take `C[C@@]12CCC[C@@](C)(C(=O)O)C1CC[C@]13C[C@@](O)(CO)[C@](O)(CCC12)C3` (stereo not given in full): the GI50 was > 100 µM and the TGI is > 100 µM.
With `Cc1cccc(C)c1NC(=O)C1C(=O)N(c2c(C)cccc2C)C(=O)/C1=N\N` (stereo not given), the TGI is > 100 µM.
Regarding `CN(C)C(c1ccccc1)C1COC2Cc3ccccc3C1O2` (stereo not given), the TGI is > 100 µM.
As to `O=C(c1ccccc1)C1OC1c1ccc([N+](=O)[O-])cc1` (stereo not given), the GI50 is 8.24 µM and the TGI worked out at 57.1 µM.
On the same counts, the results for `CC(=O)OC(C)(C)/C(C)=C/C(=O)O[C@H]1C(=O)O[C@@H]2C[C@H]3[C@H](C)C(=O)C(O[C@@H]4O[C@H](CO)[C@@H](O)[C@H](O)[C@H]4O)=C[C@]3(C)[C@H]3[C@@H](O)[C@H](O)[C@@]4(C(=O)O)OC[C@]32[C@@H]14` are > 100 µM and > 100 µM.
On the same counts, the results for `COc1cc(C(=O)N2CCN(c3ncnc4ccccc34)CC2)c(N)cc1OCc1ccccc1` are 17.7 µM and 45.7 µM.
For `NCCOCCOCCNc1nc(-c2ccccc2)nc(N2CCN(c3ccccn3)CC2)n1`, in that order: 16.4 µM and 30.5 µM.
As to `O=C(Nc1ccncc1)C(=O)c1cn(S(=O)(=O)c2ccc(Cl)cc2)c2ccccc12`, the GI50 is 55.6 µM and the TGI is > 100 µM.
For `COc1cc(-c2cc(O)c(-c3ccc4ccccc4n3)c(=O)[nH]2)cc(OC)c1OC`, the TGI is > 100 µM.
Take `COCc1cc(C(=O)Nc2cc([C@H]3CC[C@@H](OC(=O)NC(C)C)C3)[nH]n2)n(C)n1`: the GI50 is 5.35 µM and the TGI was determined as 74 µM.
`Oc1ccc2ccccc2c1N=Nc1ccsc1`: the TGI was > 100 µM.
Still for that read-out and setting: for `NCCCC[C@H](N)C(=O)Nc1ccc(-c2nc3ccccc3s2)cc1` the value was 73.6 µM; for `CC1(C)OC(=O)N(c2ccccc2)C12C=Cc1cccc([N+](=O)[O-])c1O2` (stereo not given), > 100 µM.
